Experimental data reported in the supplement of paper PMC7726561.
The full ranking holds about 1,100 sequences; the median of “thermal melting temperature (Tm) of peptide-HLA complex” is about 58, and the lowest 2% start at about 42. Some of the results follow.

B1: unnamed (peptide)
chain: RLYPEGLAQL
B2: unnamed (peptide)
chain: FLAELPGSLSL
B3: unnamed (peptide)
chain: AIQEQITRV
B4: unnamed (peptide)
chain: FLSDSSVRI
B5: unnamed (peptide)
chain: VMGKIFAV
B6: unnamed (peptide)
chain: FLSQRETLL
B7: unnamed (peptide)
chain: RLTDYVAFL
B8: unnamed (peptide)
chain: FLHDNMVEI
B9: unnamed (peptide)
chain: GLKNGVPAV
B10: unnamed (peptide)
chain: AALDFKLAAA
B11: unnamed (peptide)
chain: NLDPAVHEV
B12: unnamed (peptide)
chain: SQWEDIHVV
B13: unnamed (peptide)
chain: ALNPADITV
B14: unnamed (peptide)
chain: IMDDKSLNI
B15: unnamed (peptide)
chain: KLLDVVHPA
B16: unnamed (peptide)
chain: TIAEGLTLAQV
B17: unnamed (peptide)
chain: SLAARAIAV
B18: unnamed (peptide)
chain: FLQEEPGQLL
B19: unnamed (peptide)
chain: TLWEIAKAEV
B20: unnamed (peptide)
chain: ALMYESEKV
B21: unnamed (peptide)
chain: ALIEDEHNL
B22: unnamed (peptide)
chain: KVLEPSETLVV
B23: unnamed (peptide)
chain: IIADMDKWTV
B24: unnamed (peptide)
chain: YIQDVYWNV
B25: unnamed (peptide)
chain: KLPEKWESV
B26: unnamed (peptide)
chain: YLSEDVFQHAV
B27: unnamed (peptide)
chain: SSVEVRSDWEV
B28: unnamed (peptide)
chain: HLLGEGAFAQV
B29: unnamed (peptide)
chain: IMAQLPQEQKA
B30: unnamed (peptide)
chain: RVIGTLEEV
B31: unnamed (peptide)
chain: GLQEYVEAV
B32: unnamed (peptide)
chain: FMLPDPQNI
B33: unnamed (peptide)
chain: LLYDGKLSSA
B34: unnamed (peptide)
chain: YVFPGVTRL
B35: unnamed (peptide)
chain: TLFPGKVHSL
B36: unnamed (peptide)
chain: ALNELLQHV
B37: unnamed (peptide)
chain: YILEGEPGKV
B38: unnamed (peptide)
chain: FVYTETVHV
B39: unnamed (peptide)
chain: KIADFGWSV
B40: unnamed (peptide)
chain: SLAGGLDDMKA
B41: unnamed (peptide)
chain: SLADLYFRA
B42: unnamed (peptide)
chain: KILEETLYV
B43: unnamed (peptide)
chain: LLPSEGIVHL
B44: unnamed (peptide)
chain: ILDQKINEV
B45: unnamed (peptide)
chain: TLIRSDAVALV
B46: unnamed (peptide)
chain: TLADLVHHV
B47: unnamed (peptide)
chain: SVAEGRALMSV
B48: unnamed (peptide)
chain: FLYDTHQNL
B49: unnamed (peptide)
chain: ALNEKLVNL
B50: unnamed (peptide)
chain: TVMDEIHTV
B51: unnamed (peptide)
chain: YLLQEPPRTV
B52: unnamed (peptide)
chain: YQLEIPENFTT
B53: unnamed (peptide)
chain: VLLPDERTISL
B54: unnamed (peptide)
chain: RLGGIPVGV
B55: unnamed (peptide)
chain: VINDLTYHV
B56: unnamed (peptide)
chain: SLLPTEQPRL

Each sequence was assayed against HLA-A*02:01 (assay: thermal melting temperature (Tm) of peptide-HLA complex; higher = more thermostable pHLA complex). Details: C1R-A*02:01.
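Further: cell lysates heated 10 min at 37–73 °C, remaining pHLA pulled down with pan-class I antibody, peptides quantified by DIA-MS versus 37 °C, Tm where half the complex is lost.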

**Q.** How did the thermal melting temperature turn out when B1 was run?
**A.** 56.9 °C

**Q.** How did the thermal melting temperature turn out when B2 was run?
**A.** 49.3 °C

**Q.** For B3, which thermal melting temperature is on record?
**A.** 47.9 °C

**Q.** For B4, which thermal melting temperature is on record?
**A.** 47.3 °C

**Q.** How did the thermal melting temperature turn out when B5 was run?
**A.** 60 °C

**Q.** Which thermal melting temperature does the source give for B6 here?
**A.** 61.2 °C

**Q.** How did the thermal melting temperature turn out when B7 was run?
**A.** 63.4 °C

**Q.** Which thermal melting temperature does the source give for B8 here?
**A.** 60.6 °C

**Q.** With B9 as the sequence, how does the thermal melting temperature read?
**A.** 56 °C

**Q.** How did the thermal melting temperature turn out when B10 was run?
**A.** 46.4 °C

**Q.** Which thermal melting temperature does the source give for B11 here?
**A.** 55.3 °C

**Q.** For B12, which thermal melting temperature is on record?
**A.** 58.3 °C

**Q.** Which thermal melting temperature does the source give for B13 here?
**A.** 58.7 °C

**Q.** Which thermal melting temperature does the source give for B14 here?
**A.** 44.9 °C

**Q.** For B15, which thermal melting temperature is on record?
**A.** 62.3 °C

**Q.** With B16 as the sequence, how does the thermal melting temperature read?
**A.** 55.6 °C

**Q.** Which thermal melting temperature does the source give for B17 here?
**A.** 57.9 °C

**Q.** B18 was tested. Which thermal melting temperature did it give?
**A.** 57.5 °C

**Q.** For B19, which thermal melting temperature is on record?
**A.** 63.8 °C

**Q.** For B20, which thermal melting temperature is on record?
**A.** 51.7 °C

**Q.** Which thermal melting temperature does the source give for B21 here?
**A.** 45.2 °C

**Q.** For B22, which thermal melting temperature is on record?
**A.** 56 °C

**Q.** For B23, which thermal melting temperature is on record?
**A.** 54.6 °C

**Q.** B24 was tested. Which thermal melting temperature did it give?
**A.** 55.6 °C

**Q.** For B25, which thermal melting temperature is on record?
**A.** 59.9 °C

**Q.** For B26, which thermal melting temperature is on record?
**A.** 54.8 °C

**Q.** With B27 as the sequence, how does the thermal melting temperature read?
**A.** 42.6 °C

**Q.** For B28, which thermal melting temperature is on record?
**A.** 58.8 °C

**Q.** With B29 as the sequence, how does the thermal melting temperature read?
**A.** 56.3 °C

**Q.** How did the thermal melting temperature turn out when B30 was run?
**A.** 57.6 °C

**Q.** B31 was tested. Which thermal melting temperature did it give?
**A.** 64.2 °C

**Q.** Which thermal melting temperature does the source give for B32 here?
**A.** 53.5 °C

**Q.** How did the thermal melting temperature turn out when B33 was run?
**A.** 59.4 °C

**Q.** For B34, which thermal melting temperature is on record?
**A.** 57.6 °C

**Q.** For B35, which thermal melting temperature is on record?
**A.** 55.8 °C

**Q.** How did the thermal melting temperature turn out when B36 was run?
**A.** 60 °C

**Q.** B37 was tested. Which thermal melting temperature did it give?
**A.** 54.5 °C

**Q.** B38 was tested. Which thermal melting temperature did it give?
**A.** 47.2 °C

**Q.** With B39 as the sequence, how does the thermal melting temperature read?
**A.** 62.2 °C

**Q.** With B40 as the sequence, how does the thermal melting temperature read?
**A.** 45.1 °C

**Q.** For B41, which thermal melting temperature is on record?
**A.** 63.1 °C

**Q.** With B42 as the sequence, how does the thermal melting temperature read?
**A.** 59.9 °C

**Q.** B43 was tested. Which thermal melting temperature did it give?
**A.** 41.3 °C

**Q.** B44 was tested. Which thermal melting temperature did it give?
**A.** 60 °C

**Q.** With B45 as the sequence, how does the thermal melting temperature read?
**A.** 57.6 °C

**Q.** Which thermal melting temperature does the source give for B46 here?
**A.** 62.2 °C

**Q.** For B47, which thermal melting temperature is on record?
**A.** 56.8 °C

**Q.** Which thermal melting temperature does the source give for B48 here?
**A.** 56.7 °C

**Q.** How did the thermal melting temperature turn out when B49 was run?
**A.** 57.9 °C

**Q.** With B50 as the sequence, how does the thermal melting temperature read?
**A.** 57.6 °C

**Q.** B51 was tested. Which thermal melting temperature did it give?
**A.** 62.2 °C

**Q.** Which thermal melting temperature does the source give for B52 here?
**A.** 58.3 °C

**Q.** B53 was tested. Which thermal melting temperature did it give?
**A.** 52 °C

**Q.** Which thermal melting temperature does the source give for B54 here?
**A.** 55.9 °C

**Q.** B55 was tested. Which thermal melting temperature did it give?
**A.** 59.9 °C

**Q.** With B56 as the sequence, how does the thermal melting temperature read?
**A.** 58.1 °C
